# Results from PubChem BioAssay AID2451 (National Center for Advancing Translational Sciences (NCATS), 2010).
# Hit rate of the full screen: of about 290,000 compounds, about 2,100 (0.72%) were called active. Inconclusive means that the source gave no clear call. Such entries were picked first, then a sample of the others. Calls come from the whole dose curve; as a rule, active = well fitted inhibition curve with a large enough effect; inconclusive = small, poorly fitted or top-dose-only effect, or effect the other way; inactive = flat fitted curve, though single readings scatter. Potencies beside an inconclusive call are fits to weak or partial responses and may not hold up.
# Molecular target: Fructose-bisphosphate aldolase (Giardia intestinalis (strain ATCC 50803 / WB clone C6)) (UniProt A8B2U2)
# Experiment: qHTS Assay for Inhibitors of Fructose-1,6-bisphosphate Aldolase from Giardia Lamblia; note: nearly all actives have a fitted effect of over 55% in size
# Conditions: purified Giardia FBPA; activity, negative = inhibition: at 59.6 µM (top of the series) unless noted
# How it was run: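 Giardia FBPA (40 nM reagent) was preincubated 10 min at RT with compound (up to 57.5 uM final), then substrate plus GAPDH/TPI/NAD/arsenate coupling system with diaphorase/resazurin was added; resorufin fluorescence (525/598 nm) was read after 20 min.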
# % is set by controls: 0 for no effect and ±100 for the full control effect; potency is the fitted concentration of half-maximal effect; tags give direction and shape of the fitted curve.
# Sequence of UniProt A8B2U2 (A8B2U2 whole entry, looked up): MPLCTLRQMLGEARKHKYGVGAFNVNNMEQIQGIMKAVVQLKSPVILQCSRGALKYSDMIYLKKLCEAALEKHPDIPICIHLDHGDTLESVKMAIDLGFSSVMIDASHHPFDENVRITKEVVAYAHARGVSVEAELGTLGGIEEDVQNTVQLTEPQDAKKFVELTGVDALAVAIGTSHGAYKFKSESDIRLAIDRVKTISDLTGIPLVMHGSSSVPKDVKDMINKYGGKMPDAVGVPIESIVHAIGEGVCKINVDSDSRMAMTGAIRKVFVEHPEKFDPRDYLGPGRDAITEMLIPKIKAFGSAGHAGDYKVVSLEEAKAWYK
SMILES,Potency,"activity, negative = inhibition"
Cc1ccc(C(C)C)c(OCCN2CCc3ccccc3C2)c1,"inconclusive: 25.1 µM [inhibitor, single point]",–
Cc1ccc(C(C)C)c(OCc2ccc(C(=O)N/N=C/c3ccc(C(=O)O)cc3)cc2)c1,–,inactive: -0.277%
Cc1c(Cl)cccc1NC(=O)CCN1CCN(CCO)CC1,"inconclusive: 25.1 µM [inhibitor, partial curve]",–
O=C(NN1C(=O)/C(=C/C=C/c2ccco2)SC1=S)c1ccncc1,active: 7.06 µM,–
CCCN1CCN(CC(=O)Nc2nc3ccccc3s2)CC1,"inconclusive: 3.55 µM [inhibitor, partial curve]",–
COc1ccc(C)cc1-n1[nH]nnc1=S,active: 14.1 µM,–
COc1ccccc1N(C)S(=O)(=O)c1ccc(C(=O)NC(C)(C)C)cc1,–,inactive: -0.0041%
COc1cc(NC(=S)NC(=O)C(C)C)ccc1NC(=O)c1cc2ccccc2o1,–,inactive: -0.692%
O=C(CSc1n[nH]c(-c2ccncc2)n1)Nc1ccc(F)cc1,"inconclusive: 25.1 µM [inhibitor, single point]",–
COc1ccc2cc(C#N)c(SCC(=O)Nc3nonc3C)nc2c1,–,inactive: -3.75%
COc1ccc(NC(=O)Nc2ccc(OCC(=O)N3CCOCC3)cc2)cc1OC,"inconclusive: 44.6 µM [inhibitor, single point]",–
O=C(O)c1cc(-c2ccc(/C=C3/SC(=S)N(Cc4ccccc4)C3=O)o2)ccc1Cl,"inconclusive: 19.9 µM [inhibitor, single point]",–
Cc1cc(=O)[nH]c2nnc(-c3ccc(Cl)cc3)n12,"inconclusive: 31.6 µM [inhibitor, single point]",–
Cc1cc(C)cc(NC(=O)N2CCc3ccccc3C2)c1,–,inactive: -8.89%
CCOC(=O)c1c(O)c(O)c(C(=O)OCC)n1-c1ccccc1,active: 19.9 µM,–
CCOC(=O)c1sc(NC(=S)NC(=O)c2cccc(OC)c2)nc1C,"inconclusive: 14.1 µM [inhibitor, partial curve]",–
O=C(C[n+]1cccc(O)c1)Nc1ccc(Br)cc1,–,inactive: 6.97%
Cc1cccnc1NC(=S)NC(=O)c1cncc(Br)c1,active: 9.98 µM,–
COc1ccc(C(=O)c2ccc(O)cc2)c(O)c1O,active: 22.3 µM,–
COc1ccc2[nH]c(=O)c(CN(C(=O)c3ccco3)C3CCCCC3)cc2c1,"inconclusive: 15.8 µM [inhibitor, partial curve]",–
CCNc1ccc(Br)cc(C(=O)/C=C/c2ccc3c(c2)OCO3)c1=O,"inconclusive: 9.98 µM [inhibitor, partial curve]",–
CNCCCCOc1ccc(C(C)(C)C)cc1Cl,"inconclusive: 19.9 µM [inhibitor, partial curve]",–
Cc1ccc(/C=c2/sc3n(c2=O)CCCN=3)o1,"inconclusive: 17.7 µM [inhibitor, partial curve]",–
CCCn1c(C)cs/c1=N\C(=S)Nc1ccccc1,–,inactive: 0.559%
[O-]c1c[n+](-c2ccc(-[n+]3cc([O-])on3)cc2)no1,"inconclusive: 15.8 µM [inhibitor, single point]",–

SMILES,Potency,"activity, negative = inhibition"
Cc1ccc(OCCCCNC(C)c2ccccc2)c(C)c1 (stereo not given),"inconclusive: 17.8 µM [inhibitor, partial curve]",–
COc1ccccc1/C=N/NC(=O)c1nnn(-c2nonc2N)c1CSC1=NCCS1,"inconclusive: 15.8 µM [inhibitor, single point]",–
Cc1ccc(Nc2nc(=O)c3cccnc3s2)c(Br)c1,–,inactive: -13.1%
COc1cc(C(=O)NC(=S)Nc2ccc3[nH]c(=O)[nH]c3c2)cc(OC)c1OC,–,inactive: -16.2%
Clc1ccc(SCc2cn3ccccc3n2)cc1,–,inactive: 0.614%
CC(C)CC(=O)N1CCC(N2CCN(c3ccccc3)CC2)CC1,"inconclusive: 15.8 µM [inhibitor, partial curve]",–
O=C(Nc1ccc(Cc2ccc(NC(=O)C3CC3)cc2)cc1)C1CC1,–,inactive: -0.0733%
O=S(=O)(NCc1cc(-c2ccccc2Cl)no1)c1ccc(Cl)cc1,–,inactive: 0.511%
CCn1c2ccccc2c2cc(CNCCCN3CCOCC3)ccc21,"inconclusive: 31.6 µM [inhibitor, single point]",–
CCOC(=O)C1=C(O)/C(=C\c2ccc(CNC(=O)C(=O)Nc3ccccc3)o2)N=C1C,"inconclusive: 15.8 µM [inhibitor, partial curve]",–
Cc1[nH]nc2c1C(c1ccc(-c3ccccc3C#N)o1)C(C#N)=C(N)O2 (stereo not given),"inconclusive: 15.8 µM [inhibitor, partial curve]",–
COc1ccc(/C=N/NC(=O)c2[nH]c3ccc(Br)cc3c2-c2ccccc2)c(C(=O)O)c1OC,"inconclusive: 31.5 µM [activator, single point]",–
Cc1nn(C)cc1CNCc1c(C(=O)N2CCCCC2)nc2c(C)cccn12,–,inactive: 4.84%
CN(Cc1c(C(=O)N/N=C/c2c(F)cccc2Cl)nnn1-c1nonc1N)c1ccccc1,"inconclusive: 35.5 µM [inhibitor, partial curve]",–
O=[N+]([O-])c1cccnc1N1CCC(c2cc(-c3cccc(C(F)(F)F)c3)n[nH]2)CC1,–,inactive: -1.03%
Cc1nnc(SCC2=C(C(=O)O)N3C(=O)C(NC(=O)Cn4nc(C)c(Cl)c4C)C3SC2)s1 (stereo not given),active: 22.3 µM,–
COC1C=CO[C@@]2(C)Oc3c(C)c(O)c4c(O)c(c(C=NN5CCN(C)CC5)c(O)c4c3C2=O)NC(=O)/C(C)=C\C=CC(C)C(O)[C@@H](C)C(O)C(C)[C@H](OC(C)=O)C1C (stereo not given in full),"inconclusive: 5 µM [inhibitor, partial curve]",–
CC(/C=N/N1C(=O)CSC1=S)=C\c1ccccc1,"inconclusive: 15.8 µM [inhibitor, single point]",–
OCCN(CCO)CC(O)COc1ccc(Br)cc1 (stereo not given),inactive,–
CN1CCN(c2nc(Nc3ccc(O)cc3)nc3ccccc23)CC1,"inconclusive: 15.8 µM [inhibitor, single point]",–
CCN(C(=O)CN1CCN(c2ccc(O)cc2)CC1)c1c(N)n(Cc2ccccc2)c(=O)[nH]c1=O,"inconclusive: 5 µM [inhibitor, full curve]",–
COc1ccc(OC)c(-c2nc(C(=O)NC3CCN(Cc4ccccc4)CC3)cc3c2[nH]c2ccccc23)c1,–,inactive: -0.156%
O=C1C(=O)N(CCN2CCOCC2)C(c2ccccn2)/C1=C(/O)c1ccc(F)cc1 (stereo not given),"inconclusive: 14.1 µM [inhibitor, partial curve]",–
CC(C)Cn1c(C23CC4CC(CC(C4)C2)C3)n[nH]c1=S,–,inactive: 24.1%
Cc1nc(CCN2C(=O)c3ccccc3C2=O)n[nH]1,–,inactive: 6.05%

SMILES,Potency,"activity, negative = inhibition"
O=C(O)CCSC1CC(=O)N(c2ccccc2)C1=O (stereo not given),–,inactive: -6.42%
Cc1c(OCc2ccc(C(=O)O)cc2)ccc2c(-c3ccccc3)cc(=O)oc12,"inconclusive: 19.9 µM [activator, single point]",–
CCOc1ccc(OCC(=O)Nc2nccs2)cc1,–,inactive: -0.436%
CN1C(=O)/C(=C\N2CCc3ccccc32)C(=O)NC1=S,"inconclusive: 6.29 µM [inhibitor, partial curve]",–
COc1ccc2cc3cc(C(=O)N4CCN(Cc5ccc6c(c5)OCO6)CC4)oc3nc2c1,–,inactive: -0.458%
O=C(NCC1COc2ccccc2O1)c1cc2ccccc2o1 (stereo not given),–,inactive: -3.49%
O=c1cc(-c2ccc(O)c(O)c2)oc2cc(O)c([C@@H]3O[C@H](CO)[C@@H](O)[C@H](O)[C@H]3O)c(O)c12,"inconclusive: 17.7 µM [inhibitor, partial curve]",–
CCCCN(CCCC)c1ccc(C(=O)c2ccccc2C(=O)O)c(O)c1,"inconclusive: 17.7 µM [activator, single point]",–
CCN(CC)S(=O)(=O)c1ccc(C)c(NC(=O)CN2CCN(Cc3ccccc3)CC2)c1,active: 19.9 µM,–
O=P1(N(CCCl)CCCl)NCCCO1 (stereo not given),–,inconclusive: 83.5% [activator]
Cc1cc2nc3c(=O)[nH]c(=O)[nH]c3nc2c([N+](=O)[O-])c1N,active: 5 µM,–
COc1ccc(CN2CCNC(=O)C2CC(=O)N(C)CCc2cnn(C)c2)c(F)c1 (stereo not given),"inconclusive: 31.6 µM [inhibitor, partial curve]",–
NC(=S)N/N=C1\CCSc2ccc(Cl)cc21,"inconclusive: 15.8 µM [inhibitor, single point]",–
CC1=CC(C)(C)N2C(=O)C(=Nc3ccc(O)cc3)c3cccc1c32,active: 12.6 µM,–
N#Cc1c(-c2ccccc2)cc(-c2ccccc2)nc1SCC(=O)NCC(=O)O,"inconclusive: 35.4 µM [inhibitor, single point]",–
Cc1ccc(C)c(N=Nc2nc3ccccc3n2C)c1,–,inactive: -5.55%
CCOC(=O)c1[nH]cnc1C(=O)Nc1ccccc1C,"inconclusive: 17.7 µM [inhibitor, single point]",–
CCOC(=O)c1ccc(NC(=O)c2cc(C)nn2-c2ccccc2)cc1,–,inactive: -3.7%
O=C(NC(=S)N1C[C@H]2C[C@H](C1)c1cccc(=O)n1C2)c1ccc(Cl)cc1Cl,"inconclusive: 5.62 µM [inhibitor, partial curve]",–
CCOC(=O)C1CCN(C(=O)c2cc3cc4cc(OC)ccc4nc3o2)CC1,–,inactive: -6.06%
COC1(OC)N=C(N)C2(C#N)C(c3ccc(F)cc3)C12C#N (stereo not given),"inconclusive: 31.5 µM [inhibitor, single point]",–
O=C(CSc1nc2sccc2c(=O)[nH]1)N1CCN(c2ccccc2)CC1,–,inactive: -25.3%
O=C(c1ccc(-c2ccc(Cl)cc2)o1)N1CCN(c2ccc([N+](=O)[O-])cc2Cl)CC1,–,inactive: -10.2%
C(=C\c1ccco1)/C=N/n1cnnc1,"inconclusive: 15.8 µM [inhibitor, partial curve]",–
Fc1ccccc1N1CCN(CCCc2ccccc2)CC1,"inconclusive: 28.2 µM [inhibitor, partial curve]",–
